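1) Cells in 96-well plates. 2) Compound, 48 h, 5 concentrations. 3) Linear interpolation between surrounding doses. 4) Unreached endpoint = highest concentration. At the GI50, growth is halved.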 The source holds more than one record for some entries. They are shown here; other results are not. The source may hold further records. For some of these results: Values given together are repeated measurements across runs, samples, wells, individuals or studies. A tag in brackets gives the origin of a value. The letters are not those of the source and start again with each entry.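 TGI is the concentration that stops growth completely.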 For some of these results: A record mostly stands for its own series of concentrations, which the source does not state; a value can be the end of its range.
Legend:
Test in all cases: NCI tumour cell line growth inhibition, 48 h
NCI-H522 lung = tested on: NCI-H522 lung
UACC-257 melanoma = tested on: UACC-257 melanoma
BT-549 breast = tested on: BT-549 breast
CAKI-1 renal = tested on: CAKI-1 renal
COLO 205 colon = tested on: COLO 205 colon
HCC-2998 colon = tested on: HCC-2998 colon
HCT-116 colon = tested on: HCT-116 colon
HL-60(TB) leukemia = tested on: HL-60(TB) leukemia
HOP-62 NSCLC = tested on: HOP-62 NSCLC
HT29 colon = tested on: HT29 colon
IGROV1 ovarian = tested on: IGROV1 ovarian
MDA-MB-435 = tested on: MDA-MB-435
NCI-H460 lung = tested on: NCI-H460 lung
OVCAR-3 ovarian = tested on: OVCAR-3 ovarian
OVCAR-5 ovarian = tested on: OVCAR-5 ovarian
RXF 393 renal = tested on: RXF 393 renal
SF-295 CNS = tested on: SF-295 CNS
SK-MEL-2 melanoma = tested on: SK-MEL-2 melanoma
SK-MEL-5 melanoma = tested on: SK-MEL-5 melanoma
SNB-19 CNS = tested on: SNB-19 CNS
SW-620 colon = tested on: SW-620 colon
TK-10 renal = tested on: TK-10 renal
UACC-62 melanoma = tested on: UACC-62 melanoma
K-562 leukemia = tested on: K-562 leukemia
RPMI-8226 leukemia = tested on: RPMI-8226 leukemia
786-0 renal = tested on: 786-0 renal
ACHN renal = tested on: ACHN renal
CCRF-CEM leukemia = tested on: CCRF-CEM leukemia
DU-145 prostate = tested on: DU-145 prostate
HCT-15 colon = tested on: HCT-15 colon
HOP-92 NSCLC = tested on: HOP-92 NSCLC
HS 578T breast = tested on: HS 578T breast
LOX IMVI melanoma = tested on: LOX IMVI melanoma
M14 melanoma = tested on: M14 melanoma
MALME-3M melanoma = tested on: MALME-3M melanoma
MDA-MB-231 breast = tested on: MDA-MB-231 breast
MOLT-4 leukemia = tested on: MOLT-4 leukemia
NCI-H226 lung = tested on: NCI-H226 lung
NCI-H23 lung = tested on: NCI-H23 lung
NCI/ADR-RES ovarian = tested on: NCI/ADR-RES ovarian
OVCAR-4 ovarian = tested on: OVCAR-4 ovarian
OVCAR-8 ovarian = tested on: OVCAR-8 ovarian
PC-3 prostate = tested on: PC-3 prostate
SF-539 CNS = tested on: SF-539 CNS
SK-MEL-28 melanoma = tested on: SK-MEL-28 melanoma
SK-OV-3 ovarian = tested on: SK-OV-3 ovarian
SN12C renal = tested on: SN12C renal
SNB-75 CNS = tested on: SNB-75 CNS
SR leukemia = tested on: SR leukemia
U251 CNS = tested on: U251 CNS
UO-31 renal = tested on: UO-31 renal

In the case of `COc1nc(N)c(NC2OC(CO)C(O)C2O)c(=O)[nH]1` (centres undefined), the GI50 (NCI-H522 lung) was > 100 µM [sample A, 1 test] and 3.18 µM [sample B, 1 test].

With `C#CCOCC12C=CC(O1)C1C(=O)N(C)C(=O)C12` (centres undefined) the GI50 (NCI-H522 lung) was 1.78 µM [sample A, 1 test] and > 100 µM [sample B, 1 test] and the GI50 (UACC-257 melanoma) was 332 nM [sample A, 1 test] and > 100 µM [sample B, 1 test].

For `CS(=O)(=O)c1ccc(C(=O)Nc2ccc(Cl)c(-c3ccccn3)c2)c(Cl)c1`, the TGI (BT-549 breast) was > 100 µM [sample A, 1 test] and 8.15 µM [sample B, 1 test], the TGI (CAKI-1 renal) was > 100 µM [sample A, mean of 2 tests] and 5.92 µM [sample B, 1 test] and the TGI (COLO 205 colon) was > 100 µM [sample A, mean of 2 tests] and 4.58 µM [sample B, 1 test]. The TGI (HCC-2998 colon) was > 100 µM [sample A, mean of 2 tests] and 6.68 µM [sample B, 1 test], the TGI (HCT-116 colon) was > 100 µM [sample A, mean of 2 tests] and 9.33 µM [sample B, 1 test] and the TGI (HL-60(TB) leukemia) was > 100 µM [sample A, mean of 2 tests] and 6.87 µM [sample B, 1 test]. The GI50 (HOP-62 NSCLC) was > 87.9 µM [sample A, mean of 2 tests] and 2.45 µM [sample B, 1 test], the TGI (HT29 colon) was > 81 µM [sample A, mean of 2 tests] and 4.16 µM [sample B, 1 test] and the GI50 (IGROV1 ovarian) was > 80.7 µM [sample A, mean of 2 tests] and 2.43 µM [sample B, 1 test]. The TGI (MDA-MB-435) was > 100 µM [sample A, mean of 2 tests] and 7.72 µM [sample B, 1 test], the TGI (NCI-H460 lung) was > 100 µM [sample A, mean of 2 tests] and 3.22 µM [sample B, 1 test] and the TGI (OVCAR-3 ovarian) was > 100 µM [sample A, mean of 2 tests] and 6.88 µM [sample B, 1 test]. For the same molecule, the GI50 (OVCAR-5 ovarian) was > 100 µM [sample A, mean of 2 tests] and 2.97 µM [sample B, 1 test], the TGI (RXF 393 renal) was > 96.5 µM [sample A, mean of 2 tests] and 2.51 µM [sample B, 1 test] and the TGI (SF-295 CNS) was > 100 µM [sample A, mean of 2 tests] and 3.06 µM [sample B, 1 test]. The TGI (SK-MEL-2 melanoma) was > 100 µM [sample A, mean of 2 tests] and 6.9 µM [sample B, 1 test], the TGI (SK-MEL-5 melanoma) was > 100 µM [sample A, mean of 2 tests] and 3.87 µM [sample B, 1 test] and the GI50 (SNB-19 CNS) was > 82.2 µM [sample A, mean of 2 tests] and 3.77 µM [sample B, 1 test]. For the same molecule, the GI50 (SW-620 colon) was > 81.3 µM [sample A, mean of 2 tests] and 2.11 µM [sample B, 1 test], the GI50 (TK-10 renal) was > 79.7 µM [sample A, mean of 2 tests] and 3.94 µM [sample B, 1 test] and the TGI (UACC-257 melanoma) was > 100 µM [sample A, mean of 2 tests] and 9.96 µM [sample B, 1 test]. For the same molecule, the TGI (UACC-62 melanoma) was > 100 µM [sample A, mean of 2 tests] and 6.4 µM [sample B, 1 test].

With `COc1cc2cc(C(=O)N3CC(CCl)c4ccc(O)cc43)[nH]c2c(OC)c1OC` (centres undefined) the TGI (HCT-116 colon) was 101 nM and 10.4 µM, the TGI (HL-60(TB) leukemia) was 62.4 nM and > 100 µM and the TGI (HOP-62 NSCLC) was 95.6 nM and 15 µM. The TGI (K-562 leukemia) was 23 nM and 776 nM and the TGI (RPMI-8226 leukemia) was 53.8 nM and > 100 µM.

`CC(=O)C(O)N1C(=O)C=CC1=O` (centres undefined) was tested, and the TGI (786-0 renal) was 11 µM, 29.6 µM, 5.66 µM, 22.7 mM, the TGI (ACHN renal) was > 25 µM, 27.5 µM, 6.73 µM, 22 mM and the TGI (CAKI-1 renal) was > 25 µM, 3.42 µM, 3.18 µM, 23.3 mM. For the same molecule, the TGI (CCRF-CEM leukemia) was > 25 µM, 6.23 µM, 1.8 µM, the TGI (COLO 205 colon) was > 25 µM, 3.22 µM, 3.32 µM, 25.2 mM and the TGI (DU-145 prostate) was 25 µM and 96.8 mM. The TGI (HCC-2998 colon) was 25 µM, 32.9 µM, 36.4 µM, 92.9 mM, the TGI (HCT-116 colon) was 25 µM, 32.1 µM, 10.1 µM, 12 mM and the TGI (HCT-15 colon) was 25 µM, 30.5 µM, 3.34 µM, 22.5 mM. The TGI (HL-60(TB) leukemia) was > 25 µM, 4.41 µM, 3.06 µM, 23.5 mM, the TGI (HOP-62 NSCLC) was 11.7 µM, 36.9 µM, 14.5 mM and the TGI (HOP-92 NSCLC) was > 25 µM, 33.2 µM, 3.83 µM, 23.1 mM. For the same molecule, the TGI (HS 578T breast) was 25 µM and 77.3 mM, the TGI (HT29 colon) was 25 µM, 35.4 µM, 34.8 µM, 25.6 mM and the TGI (IGROV1 ovarian) was 10.2 µM, 34.8 µM, 39.1 µM, 12 mM. For the same molecule, the TGI (K-562 leukemia) was > 25 µM, 24.3 µM, 5.27 µM, 10.6 mM, the TGI (LOX IMVI melanoma) was 25 µM, 32.2 µM, 9.17 µM, 23.7 mM and the TGI (M14 melanoma) was 29.5 µM, 8.51 µM, 21.8 mM. For the same molecule, the TGI (MALME-3M melanoma) was > 25 µM, 32.8 µM, 4.44 µM, 22.5 mM, the TGI (MDA-MB-231 breast) was 9.83 µM and 25.2 mM and the TGI (MDA-MB-435) was 25 µM and 20.1 mM. For the same molecule, the TGI (MOLT-4 leukemia) was > 25 µM, 28.6 µM, 4.15 µM, 23.4 mM, the TGI (NCI-H226 lung) was 25 µM, 32 µM, 19.3 mM and the TGI (NCI-H23 lung) was 25 µM, 32.8 µM, 30.4 µM, 22.9 mM. For the same molecule, the TGI (NCI-H522 lung) was > 25 µM, 26.3 µM, 1.35 µM, the TGI (NCI/ADR-RES ovarian) was 25 µM and 33.5 mM and the TGI (OVCAR-3 ovarian) was 31.7 µM and 21.5 mM. For the same molecule, the TGI (OVCAR-4 ovarian) was 23 µM, 8.81 µM, 26 mM, the TGI (OVCAR-5 ovarian) was 30.4 µM, 30.9 µM, 24 mM and the TGI (OVCAR-8 ovarian) was 25 µM, 34.6 µM, 33.4 µM, 23.5 mM. For the same molecule, the TGI (PC-3 prostate) was 14.7 µM and 9.62 mM, the TGI (RXF 393 renal) was 6.49 µM and 23.4 mM and the TGI (SF-295 CNS) was 4.81 µM, 32.6 µM, 32.3 µM, 7.4 mM. The TGI (SF-539 CNS) was 9.42 µM, 35.9 µM, 2.92 µM, 20.1 mM, the TGI (SK-MEL-2 melanoma) was 25 µM, 35.4 µM, 29.9 µM, 7.53 mM and the TGI (SK-MEL-28 melanoma) was 25 µM, 36.5 µM, 3.31 µM, 21.9 mM. For the same molecule, the TGI (SK-MEL-5 melanoma) was 25 µM, 31.9 µM, 32.6 µM, 80.8 mM, the TGI (SK-OV-3 ovarian) was 60.4 µM and 21.7 mM and the TGI (SN12C renal) was 14.2 µM, 31.8 µM, 7.14 µM, 19.9 mM. For the same molecule, the TGI (SNB-19 CNS) was 17.4 µM, 30.9 µM, 32 µM, 54 mM, the TGI (SNB-75 CNS) was 16.1 µM, 33.8 µM, 38.7 µM, 41.3 mM and the TGI (SR leukemia) was 25 µM, 35.2 µM, 3.86 µM, 18.6 mM. For the same molecule, the TGI (SW-620 colon) was > 25 µM, 27.3 µM, 3.02 µM, 23.4 mM, the TGI (TK-10 renal) was 25 µM, 27.8 µM, 6.27 µM, 17.7 mM and the TGI (U251 CNS) was 9.44 µM, 34.4 µM, 31.8 µM, 13.6 mM. For the same molecule, the TGI (UACC-257 melanoma) was 25 µM, 30 µM, 11.2 µM, 21.6 mM, the TGI (UACC-62 melanoma) was 29.7 µM, 32 µM, 16.4 mM and the TGI (UO-31 renal) was 11.4 µM, 10.5 µM, 7.23 mM.

`Cc1ccc(C(=O)Nc2ccc(CN3CCN(C)CC3)c(C(F)(F)F)c2)cc1C#Cc1cnc2cccnn12` was tested, and the TGI (K-562 leukemia) was 110 nM [sample A, 1 test] and 4.25 µM [sample B, mean of 2 tests].

From PubChem BioAssay (NCI)
